This note sets out measurements from publication PMC7795627.

Test [1] concerns the target E196K CST variant (human) (UniProt P78382). The test is described as follows: split reporter; NanoBiT luminescence in living CST-deficient HEK293T cells co-transfected with N-terminal SmBiT and LgBiT fusions of the same CST variant; control: LgBiT-CST with SmBiT-HaloTag; only a signal at least 10-fold over the control counted as an interaction.
Test [2] has as its target Q101H CST variant (human) (UniProt P78382). The test is described as above.
The target in test [3] is T156R CST variant (human) (UniProt P78382). The test is described as above.
For test [4], the target named is double T156R/E196K CST mutant (human) (UniProt P78382). The test is described as above.
For test [5], the target named is T1, wild-type human CMP-sialic acid transporter (human), P78382.
T1 chain: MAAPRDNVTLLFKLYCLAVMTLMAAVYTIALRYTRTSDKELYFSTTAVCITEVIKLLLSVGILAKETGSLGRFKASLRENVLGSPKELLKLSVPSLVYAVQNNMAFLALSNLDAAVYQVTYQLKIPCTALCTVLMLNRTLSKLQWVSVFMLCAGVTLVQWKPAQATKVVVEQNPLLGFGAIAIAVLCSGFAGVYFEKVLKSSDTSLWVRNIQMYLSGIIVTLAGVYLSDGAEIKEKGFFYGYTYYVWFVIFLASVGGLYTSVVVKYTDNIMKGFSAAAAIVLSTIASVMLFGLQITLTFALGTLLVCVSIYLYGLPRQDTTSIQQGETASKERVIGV
Description: split reporter; bioluminescent imaging (LV200) of living wild-type HEK293T cells transfected with LgBiT and SmBiT fusions of wild-type CST, 250 ng of each plasmid. Conditions: remark: other sources report otherwise.

Test [6] has as its target T1, wild-type human CMP-sialic acid …. Description: split reporter; NanoBiT luminescence in living CST-deficient HEK293T cells co-transfected with N-terminal SmBiT and LgBiT fusions of the same CST variant; control: LgBiT-CST with SmBiT-HaloTag; only a signal at least 10-fold over the control counted as an interaction. Conditions: remark: other sources report otherwise.

These are yes or no findings as the source states them, for the method shown. Binding seen in cells or lysates may run through a third protein. Some binding calls cover weakened binding; strength is not graded here.

In the case of “E196K CST variant (from UniProt P78382 1-337)”, the binding result in test [1] is “no binding”.

With “Q101H CST variant (from UniProt P78382 1-337)”, the binding entry in test [2] is reported as “no binding”.

In the case of “T156R CST variant (from UniProt P78382 1-337)”, the binding entry in test [3] is reported as “binds”.

Regarding “double T156R/E196K CST mutant (from UniProt P78382 1-337)”, the binding result in test [4] is listed as “binds”.

B1: wild-type human CMP-sialic acid transporter, P78382 1-337 (protein)
chain: MAAPRDNVTLLFKLYCLAVMTLMAAVYTIALRYTRTSDKELYFSTTAVCITEVIKLLLSVGILAKETGSLGRFKASLRENVLGSPKELLKLSVPSLVYAVQNNMAFLALSNLDAAVYQVTYQLKIPCTALCTVLMLNRTLSKLQWVSVFMLCAGVTLVQWKPAQATKVVVEQNPLLGFGAIAIAVLCSGFAGVYFEKVLKSSDTSLWVRNIQMYLSGIIVTLAGVYLSDGAEIKEKGFFYGYTYYVWFVIFLASVGGLYTSVVVKYTDNIMKGFSAAAAIVLSTIASVMLFGLQITLTFALGTLLVCVSIYLYGLPRQDTTSIQQGETASKERVIGV
In the case of B1, the binding result in test [5] and in test [6] was “binds” in each case.
